{
  "source": "PubChem BioAssay AID686979",
  "about": "(National Center for Advancing Translational Sciences (NCATS), 2013)",
  "note": "“And” between values parts separate entries of the source, which are not always exact repeats. Identical values can stand only once. Out of some 420,000 compounds screened, about 50,000 (12%) were called active. Inconclusive means that the source gave no clear call. Such entries were picked first, then a sample of the others. The call rests on the fitted dose curve; in most records, active means well fitted inhibition curve with a large enough effect; inconclusive means small, poorly fitted or top-dose-only effect; inactive means flat fitted curve, though single readings scatter. Where the call is inconclusive, the potency comes from a doubtful curve fit. On the % scale 0 is the no-effect control and ±100 the full control effect; potency means the concentration at half of the fitted maximal effect; tags describe the fitted curve by direction and shape.",
  "data": [
    {"assay": "qHTS for Inhibitors of human tyrosyl-DNA phosphodiesterase 1 (TDP1): qHTS in cells in presence of CPT; further: nearly all actives have a fitted effect of over 55% in size", "conditions": "chicken DT40 Tdp1-/-;hTDP1 cells + 20 nM CPT, ATP luminescence, 48 h; activity change, negative = growth inhibition: at 46.2 µM (top of the series) unless noted", "how_it_was_run": "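Chicken DT40 Tdp1-/- cells stably complemented with human TDP1 were seeded at 400 cells/well in medium containing 20 nM camptothecin, exposed to pin-transferred compounds, and grown at 37 °C for at least 48 hr. Viability was read as ATP luminescence.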", "values": [
      {"molecule": "COC(=O)Cn1c(=NC(=O)C2CC2)sc2c(C)cc(C)cc21", "Potency": "inconclusive: 25.9 µM [inhibitor, single point]"},
      {"molecule": "O=C(O)c1c2c(nc3ccc(S(=O)(=O)N4CCC(C(=O)NCc5ccccc5)CC4)cc13)CCCC2", "Potency": "inactive"},
      {"molecule": "O=C1c2ccccc2C(=O)N1CCCCN(C(=O)c1ccc([N+](=O)[O-])cc1)c1ccc(Cl)cc1", "Potency": "inconclusive: 29.1 µM [inhibitor, single point]"},
      {"molecule": "Cc1ccc(C(=O)NCC(=O)OC(C)C(=O)Nc2ccc(N(C)C)cc2)cc1C", "note": "(centres undefined)", "Potency": "inactive"},
      {"molecule": "O=C(CSc1ccc(-c2ccc(Cl)cc2)nn1)NC1CCCC1", "Potency": "inactive"},
      {"molecule": "COCCN1C[C@@H](CO)O[C@@H](n2cnc3c(NC4CCCC4)ncnc32)C1", "Potency": "inactive"},
      {"molecule": "Cc1ccc(S(=O)(=O)NCC(=O)Nc2ccc(C(F)(F)F)cc2)cc1", "Potency": "inconclusive: 10 µM [inhibitor, partial curve]"},
      {"molecule": "O=C(NCCS(=O)(=O)N1CCN(c2cccc(Cl)c2)CC1)c1cc(=O)c2ccccc2o1", "Potency": "inconclusive: 29.1 µM [inhibitor, single point] and inconclusive: 3.26 µM [inhibitor, partial curve]"},
      {"molecule": "C=C(C)CN(CC)C(=O)CSc1nc2ncc(Cl)cc2[nH]1", "Potency": "inconclusive: 23.1 µM [inhibitor, partial curve]"},
      {"molecule": "C=C(C)Cn1c(SCC(=O)Nc2cccc(Cl)c2)nc2sc3c(c2c1=O)CCCC3", "Potency": "inconclusive: 8.2 µM [inhibitor, partial curve]"},
      {"molecule": "COc1ccc(NC(=O)COc2ccc(N(C)S(=O)(=O)c3ccc(C)cc3)cc2)cc1", "Potency": "inconclusive: 18.4 µM [inhibitor, single point]"},
      {"molecule": "CCc1ccc(C(=O)/C=C/c2cnn(C)c2C)s1", "Potency": "inconclusive: 29.1 µM [inhibitor, partial curve]"},
      {"molecule": "O=C(COC(=O)/C=C/c1cccs1)Nc1nc(-c2cccc(Br)c2)cs1", "Potency": "inconclusive: 29.1 µM [inhibitor, single point]"},
      {"molecule": "COC(=O)c1cccc(C23CC4(C2)[C@H](CN(C)[C@@H]4c2ccccc2)C3c2ccc(C(F)(F)F)cc2)c1", "note": "(some centres undefined)", "Potency": "inconclusive: 29.1 µM [inhibitor, single point]"},
      {"molecule": "CC[C@H]1OC(=O)[C@H](C)[C@@H](O[C@H]2C[C@@](C)(OC)[C@@H](O)[C@H](C)O2)[C@H](C)[C@@H](O[C@@H]2O[C@H](C)C[C@H](N(C)C)[C@H]2O)[C@](C)(O)C[C@@H](C)CN(C)[C@H](C)[C@@H](O)[C@]1(C)O", "Potency": "inconclusive: 23.1 µM [inhibitor, single point]"},
      {"molecule": "Cc1cccc(OCC(=O)NNC(=O)Cn2c(=O)cnc3ccccc32)c1", "Potency": "inactive"},
      {"molecule": "Cn1nc(-c2ccc(Cl)cc2)c2cc(C(=O)N3CCOCC3)sc21", "Potency": "inconclusive: 16.4 µM [inhibitor, single point]"},
      {"molecule": "O=C1NC[C@H](Cc2ccc(O)cc2)N(C[C@@H]2CCCN2C[C@H](Cc2ccc(O)cc2)N2C[C@H](Cc3ccccc3)N(CC3CCCCCC3)C(=O)C2=O)C1=O", "Potency": "inconclusive: 29.1 µM [inhibitor, single point]"},
      {"molecule": "CCS(=O)c1ccccc1C(=O)OCC(=O)Nc1cccc(S(=O)(=O)N2CCCCC2)c1", "note": "(centres undefined)", "Potency": "active: 11.6 µM"},
      {"molecule": "COc1ccc(CNS(=O)(=O)c2cc(-c3cc(C)no3)ccc2C(C)C)cc1", "Potency": "active: 0.92 µM"},
      {"molecule": "CN(Cc1ccc(Cl)cc1)C(=O)c1[nH]c(C(F)(F)F)nc1-c1ccccc1", "Potency": "inactive"},
      {"molecule": "O=[N+]([O-])c1ccc(-c2ccc(/C=N/Nc3nc(N4CCCC4)nc(N4CCCC4)n3)o2)cc1", "Potency": "active: 14.6 µM"},
      {"molecule": "O=C(Cn1cc(C(F)(F)F)ccc1=O)OCC(=O)c1ccc[nH]1", "Potency": "inconclusive: 23.1 µM [inhibitor, single point]"},
      {"molecule": "O=C(NCCC1=CCCCC1)c1ccc2c(c1)N(Cc1ccc(Cl)cc1)C(=O)c1ccccc1S2=O", "note": "(centres undefined)", "Potency": "inconclusive: 29.1 µM [inhibitor, single point]"},
      {"molecule": "CN1C(=O)N(CC(=O)NCc2ccc(Cl)cc2Cl)C(=O)C12CCCCC2", "Potency": "inactive"},
      {"molecule": "Cc1ccc(C)c(NC(=O)CSc2ccc(-c3ccco3)nn2)c1", "Potency": "inactive"},
      {"molecule": "COc1ccc(-n2cnc3cc(C(=O)NCCN4CCOCC4)ccc32)cc1", "Potency": "inactive"},
      {"molecule": "CC1=C(c2ccc(C)c(C)c2)S(=O)(=O)N=C1N1CCC(C(=O)NCc2ccc(Cl)cc2)CC1", "Potency": "inconclusive: 18.4 µM [inhibitor, single point]"},
      {"molecule": "CC1CCc2nc(NC(=O)c3ccc(N4C(=O)CCC4=O)cc3)sc2C1", "note": "(centres undefined)", "Potency": "inactive"},
      {"molecule": "Cc1ccc(C(=O)C(C)Sc2nnc(N)s2)cc1", "note": "(centres undefined)", "Potency": "inactive"},
      {"molecule": "CN(Cc1cccc(F)c1)C(=O)CSc1nnc(C2CC2)n1C1CC1", "Potency": "inactive"},
      {"molecule": "COc1ccc(Cl)cc1S(=O)(=O)N1CCCC(C(=O)NCCc2ccccc2)C1", "note": "(centres undefined)", "Potency": "inconclusive: 29.1 µM [inhibitor, single point]"},
      {"molecule": "C[C@@H](NC(=O)c1[nH]cnc1C(=O)Nc1ccc(Cl)cc1)c1ccccc1", "Potency": "inconclusive: 23.1 µM [inhibitor, single point]"},
      {"molecule": "COc1ccc(-c2cc(C(F)(F)F)nc(NC3CCCC3)n2)cc1OC", "Potency": "inconclusive: 18.4 µM [inhibitor, partial curve]"},
      {"molecule": "O=C(Cn1c(SCC(=O)N2CCc3ccccc3C2)nc2ccccc21)NC1CCCC1", "Potency": "inconclusive: 29.1 µM [inhibitor, single point]"},
      {"molecule": "COc1ccc(NC(=S)/N=C(\\N)Nc2nc(C)c3ccccc3n2)cc1", "Potency": "inconclusive: 29.1 µM [inhibitor, single point]"},
      {"molecule": "COc1ccc(-n2c(=O)c3c(c4cc(OC)ccc4n3C)n(C)c2=O)cc1", "Potency": "inactive"},
      {"molecule": "COc1ccc(-c2cc(C(=O)NCC(c3ccco3)N(C)C)c3ccccc3n2)cc1OC", "note": "(centres undefined)", "Potency": "active: 23.1 µM"},
      {"molecule": "O=c1c2cc(N3CCOCC3)ccc2[nH]c(=S)n1CCCN1CCCCCC1", "Potency": "inconclusive: 18.4 µM [inhibitor, single point]"},
      {"molecule": "C[C@@H]1CN([C@H](C)CO)C(=O)CCCn2cc(nn2)CO[C@H]1CN(C)C(=O)c1ccc2ccn(C)c2c1", "Potency": "inactive"},
      {"molecule": "O=C(c1cc(Br)c(Br)s1)N1CCc2ccccc2C1", "Potency": "inconclusive: 29.1 µM [inhibitor, single point]"},
      {"molecule": "CS(=O)(=O)c1ccc2nnn(OCC(=O)Nc3cccc(C#N)c3)c2c1", "Potency": "inconclusive: 29.1 µM [inhibitor, single point]"},
      {"molecule": "Cc1ccc(-n2c(=O)c3cccnc3n2CC(=O)NCc2ccc(F)cc2)cc1C", "Potency": "inconclusive: 29.1 µM [inhibitor, single point]"},
      {"molecule": "CC(C)C(=O)N1CCN(c2ccccc2NC(=O)c2cc([N+](=O)[O-])ccc2N2CCOCC2)CC1", "Potency": "inconclusive: 29.1 µM [inhibitor, single point]"},
      {"molecule": "CCN(CC(=O)Nc1c(F)cccc1F)C(=O)c1cc(S(=O)(=O)NCc2ccccc2)ccc1C", "Potency": "inconclusive: 29.1 µM [inhibitor, single point]"},
      {"molecule": "COC(=O)[C@@H]1C[C@H](NC(=O)c2ccccn2)CN1Cc1cccc2ccccc12", "activity change, negative = growth inhibition": "inactive: 6.78% [at 9.04 µM]"},
      {"molecule": "CC(C)(C)OC(=O)N(CCc1ccccc1)Cc1ccccc1OCc1cccc(NC(=O)C2CC2)c1", "Potency": "inconclusive: 25.9 µM [inhibitor, single point]"},
      {"molecule": "Cc1cc(C)c(/C=C/c2onc(C)c2S(=O)(=O)N2CCC(C(=O)Nc3ccc(Cl)c(C(F)(F)F)c3)CC2)c(C)c1", "Potency": "active: 4.11 µM"},
      {"molecule": "CCN(Cc1ccc(Cl)s1)C(=O)c1cccc(OCc2c(C)noc2C)c1", "Potency": "inconclusive: 18.4 µM [inhibitor, single point]"},
      {"molecule": "COc1ccc(-c2noc(CCC(=O)N3CCN(c4cccc(C(F)(F)F)c4)CC3)n2)cc1", "Potency": "inconclusive: 18.4 µM [inhibitor, single point]"},
      {"molecule": "O=C(COc1ccccc1F)Nc1ccc(Cl)c(-c2nc3ccccc3[nH]2)c1", "Potency": "inconclusive: 25.9 µM [inhibitor, single point]"},
      {"molecule": "CCOc1ccccc1NC(=O)C(OC(=O)c1ccc(N(C)C)cc1)c1ccccc1", "note": "(centres undefined)", "Potency": "active: 0.58 µM"},
      {"molecule": "CCCCn1c(N)c(N(CCC(C)C)C(=O)C2CC(=O)N(c3cccc(SC)c3)C2)c(=O)[nH]c1=O", "note": "(centres undefined)", "Potency": "inactive"},
      {"molecule": "Cc1ccc(C(=O)N2N=C(c3ccc(NS(C)(=O)=O)cc3)CC2c2cccs2)cc1", "note": "(centres undefined)", "Potency": "inconclusive: 23.1 µM [inhibitor, single point]"},
      {"molecule": "COc1ccc(C(C)=O)cc1COc1ccc(Cl)c(C)c1", "Potency": "active: 10.3 µM"},
      {"molecule": "CC[C@H](C)[C@H]1CNC(=S)N1CC1CCN(CCC(C)(C)C)CC1", "Potency": "inactive"},
      {"molecule": "Cc1ccccc1NC(=O)CC1SC(=O)N(c2ccccc2)C1=O", "note": "(centres undefined)", "Potency": "active: 6.51 µM"},
      {"molecule": "CC1CCN(CCCn2c(=S)[nH]c3ccc(N4CCOCC4)cc3c2=O)CC1", "Potency": "inconclusive: 20.6 µM [inhibitor, single point]"},
      {"molecule": "COc1ccc(CCNC(=O)CCc2ccc(S(=O)(=O)NC(C)C)cc2)cc1", "Potency": "inactive"},
      {"molecule": "CCN(CC)S(=O)(=O)c1cc(NC(=O)c2cccc(N3C(=O)CCC3=O)c2)ccc1Cl", "Potency": "inactive"},
      {"molecule": "CCCCC(=O)Nc1ccccc1C(=O)OCC(=O)c1ccc2c(c1)OCCO2", "Potency": "inconclusive: 29.1 µM [inhibitor, single point]"},
      {"molecule": "CCS(=O)c1scc(-c2ccc(Cl)cc2)c1C#N", "note": "(centres undefined)", "Potency": "inconclusive: 29.1 µM [inhibitor, single point]"},
      {"molecule": "CCN(CC)c1ccc(S(=O)(=O)Nc2cc(Cl)ccc2Cl)cc1NC(=S)NC(=O)C1CCCC1", "Potency": "inconclusive: 29.1 µM [inhibitor, single point]"},
      {"molecule": "Cc1ccccc1C(=O)Nc1c(-c2cccs2)c(=O)c2ccccc2n1C", "Potency": "inconclusive: 20.6 µM [inhibitor, single point]"}
    ]}
  ]
}
